# Some of the results follow. Antibody binding of pooled human sera (four to six donors per pool; dilution not stated) to peptides of the Trypanosoma cruzi antigen TSSA on microarrays. Quantile-normalised fluorescence in arbitrary units, mean of duplicate arrays; higher = more binding. No active / inactive call. The uninfected pools are read here as the healthy donors of the same country. The strongest signals lie near the top of the scale (about 60,000).
# Experiments:
# Assay in all cases: antibody binding signal (normalised fluorescence) (arbitrary fluorescence units); higher = stronger serum antibody binding to peptide
# [1] = tested on: pooled sera of chronic Chagas disease patients, Bolivia
# Procedure: (§1)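 Microarray of 15-residue peptides over residues 30-55 of Trypanosoma cruzi TSSAII, each with 1 to 10 substitutions at naturally variable positions, probed with one serum pool per country.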
# [2] = tested on: pooled sera of chronic Chagas disease patients, Brazil
# Procedure: as §1
# [3] = tested on: pooled sera of chronic Chagas disease patients, Colombia
# Procedure: as §1
# [4] = tested on: pooled sera of chronic Chagas disease patients, Mexico
# Procedure: as §1
# [5] = tested on: pooled sera of chronic Chagas disease patients, USA
# Procedure: as §1
# [6] = tested on: pooled sera of uninfected people, Argentina
# Procedure: as §1
# [7] = tested on: pooled sera of uninfected people, Bolivia
# Procedure: as §1
# [8] = tested on: pooled sera of uninfected people, Brazil
# Procedure: as §1
# [9] = tested on: pooled sera of uninfected people, Colombia
# Procedure: as §1
# [10] = tested on: pooled sera of uninfected people, Mexico
# Procedure: as §1
# [11] = tested on: pooled sera of uninfected people, USA
# Procedure: as §1
Sequence,antibody binding signal [1],antibody binding signal [2],antibody binding signal [3],antibody binding signal [4],antibody binding signal [5],antibody binding signal [6],antibody binding signal [7],antibody binding signal [8],antibody binding signal [9],antibody binding signal [10],antibody binding signal [11]
KEKKAAAGEAPSQPG,7000,29700,175,124,8610,119,97.6,104,91.3,73.6,75
KDNKTAAGGAPSQPG,207,1040,3680,278,343,281,130,162,191,89,148
TDNKPAAGGTPSQPG,447,5480,993,214,351,189,426,1030,455,531,115
SGTDKKPAAGETPSQ,4550,27800,9370,810,2210,138,281,171,926,3000,153
DKKPAAGGAPSPSGA,232,390,5220,346,934,312,172,272,125,132,166
STPPSGKEKKAAAGG,287,380,2110,28600,944,283,289,140,265,91.6,146
TPPSGTDNKPAAGEA,43000,46100,6970,25600,23200,1900,758,325,294,720,325
KDNKTAAGETPSPSG,199,306,2110,265,1470,505,282,189,262,219,1900
KPATGETPSQSGASS,29400,32600,156,305,22300,359,660,324,176,1830,209
TDNKTAAGEAPSPPG,446,5410,190,218,6930,138,357,274,151,113,139
PSGTDKKPAAGETPS,2960,32800,13500,3330,2680,189,735,537,1250,4080,289
SGTDKKTATGEAPSP,26300,12000,1200,331,22700,169,138,423,191,223,133
TPPSGTDNKTAAGGT,39400,48600,1280,18300,7910,679,681,3220,301,244,234

# Source: the supplement of paper PMC10441789
